The full ranking holds about 33,000 sequences; the median of “E-score (-0.5 to 0.5)” is about -0.041, and the highest 2% start at about 0.37. This is one part of the list.
Target: T1, Ecm22 (UniProt Q05958)
T1 sequence: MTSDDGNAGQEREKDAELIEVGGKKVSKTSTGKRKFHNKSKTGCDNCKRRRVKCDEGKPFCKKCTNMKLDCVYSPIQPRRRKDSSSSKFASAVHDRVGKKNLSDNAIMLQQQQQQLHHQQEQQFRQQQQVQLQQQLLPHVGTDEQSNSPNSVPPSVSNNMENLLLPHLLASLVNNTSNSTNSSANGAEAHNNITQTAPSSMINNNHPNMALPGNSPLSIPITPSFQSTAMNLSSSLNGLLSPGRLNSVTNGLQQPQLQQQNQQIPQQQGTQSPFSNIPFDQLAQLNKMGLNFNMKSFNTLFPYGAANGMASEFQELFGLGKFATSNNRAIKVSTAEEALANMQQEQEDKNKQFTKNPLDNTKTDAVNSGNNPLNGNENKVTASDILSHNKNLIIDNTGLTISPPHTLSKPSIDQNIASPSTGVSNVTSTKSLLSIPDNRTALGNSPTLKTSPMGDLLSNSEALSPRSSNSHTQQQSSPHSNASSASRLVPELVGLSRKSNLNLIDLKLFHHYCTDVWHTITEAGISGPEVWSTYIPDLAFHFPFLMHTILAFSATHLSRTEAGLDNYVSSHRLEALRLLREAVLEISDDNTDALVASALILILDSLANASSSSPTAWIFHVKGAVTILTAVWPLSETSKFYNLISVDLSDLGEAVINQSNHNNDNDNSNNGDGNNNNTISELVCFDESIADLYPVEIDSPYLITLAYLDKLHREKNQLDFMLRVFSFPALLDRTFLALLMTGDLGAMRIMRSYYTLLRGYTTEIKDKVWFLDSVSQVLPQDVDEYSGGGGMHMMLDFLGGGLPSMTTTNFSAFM
Experiment: PBM E-score (8-mer binding enrichment) (E-score (-0.5 to 0.5)); higher = stronger / more preferred TF binding; most listed sequences are background and not binding sites
Conditions: protein concentration: 200 nM; construct: GST-full length
Procedure, shortened: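 E-scores (a modified Wilcoxon-Mann-Whitney statistic) were assigned by the Universal PBM Analysis Suite to every ungapped eight-base word pooled with its reverse complement. The input came from universal all-10-mer Agilent arrays made double-stranded by primer extension and probed with GST-tagged yeast transcription factors at about 100-200 nM. Fluorescent anti-GST detected bound protein, and masliner normalised the scans.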

Sequence | PBM E-score
CCCCAAGC | 0.0776
CCTAGGGA | -0.25
GAGCGCCC | -0.0895
CACAATTC | -0.0282
TACATAAA | 0.00979
AATACCCG | 0.149
ATCTTCGA | 0.0171
CTGGCAAA | -0.101
GTGCGATA | 0.0925
ATGACTTG | -0.136
ACTATGTA | 0.0343
GAGTGTGC | -0.0597
ATGACTGC | -0.18
TCCTCCAA | -0.118
CTGAACTC | -0.142
GCGTGAAA | 0.0478
ACTCCAAT | -0.106
GCCCACGA | -0.236
CAAGAATG | -0.213
GATAACAC | -0.0205
AGGTATCC | 0.0226
ACATACAC | 0.0438
ATGGTGAC | -0.109
AGGGACTA | -0.28

Sequence | PBM E-score
AATGATGG | 0.0169
CAGAACTC | -0.109
AATTCCCG | 0.0144
CTTCATCA | -0.00655
CGATAGGC | 0.00924
GTGCTGCA | -0.138
GGAGGAAA | -0.0535
GCGTGCGA | 0.203
GCTGACGA | -0.0496
CCCGGAGA | 0.0581
CGTGAAAA | 0.111
ATCAGGGC | -0.0446
AACTTCCT | -0.145
CAGTAGAA | -0.0929
GCGACGCC | 0.12
CGGGTGAC | -0.091
AGAATATG | -0.03
GCCGTCAC | -0.111
CTATTCTA | -0.119
CACAAGGA | -0.144
GTTCGAGA | 0.105
ATAAAGCC | -0.0328
AATTGCGG | -0.0291
ACTGGGGG | -0.145

Sequence | PBM E-score
AACGCCGC | -0.00584
CCCTATAG | -0.169
GTAGTAAC | 0.0981
CGTTTACC | 0.435
GATCCAAC | -0.064
CTGAGCAG | -0.0168
CTTACAAC | -0.053
TTCAAAAA | -0.196
TAAGCTTA | -0.0696
CCATCTGA | -0.0434
CAAGCAAA | -0.119
CACACATC | -0.226
GTCGGACA | 0.176
TGGAGACA | -0.0915
TCAGTTAA | -0.14
ACTGCATG | -0.0787
ACAGCATG | 0.00203
AATAGCCT | -0.138
AGGATATA | -0.0186
GCTTTAGA | -0.098
CCAGTGTA | 0.00327
AACTAATT | 0.00402
CGTCGTTA | 0.374
GCTTTCTA | -0.117

Sequence | PBM E-score
CACACAAG | -0.183
GGCGACCA | -0.221
GTAGAACA | -0.125
GGCTGTTA | -0.167
AAAACTGG | -0.231
ACCTCGCC | 0.0126
ACAGCACT | -0.0402
CGAAGCAC | 0.0797
TATACATA | 0.0372
CGGGACAC | -0.0319
CAATGTTA | -0.156
AAAATAGC | -0.235
ACTTTTTC | -0.0033
CAGCCTCA | -0.00094
CGTGTTGC | 0.111
CGATCGCG | 0.235
AGTAACTG | -0.0945
ACGGACAA | 0.0269
AGCAAACT | 0.0923
CAAGGGGC | -0.346
AAGACGCG | -0.012
ACACAATG | -0.00693

Reference: the supplement of paper PMC3334620
